From the supplement of paper PMC10126150
Values marked as one replicate rest on one cluster of the flow cell; about a third of the high ones do not repeat.

System: ATP
Assay: switch fluorescence ratio, 500 uM ATP over buffer (Cy3 cluster intensity, sum of 5 cycles each) (fold (ratio)); higher = stronger signal-on switching upon ATP binding; sequences stand for … in TCGTCGGCAGCGTCAGATGTGTATAAGAGACAGTTTTTTTTTTTTTTTTTTTTTTTTT…TC
Conditions: aptamer strand: ATP DNA aptamer (quencher-CACCTGGGGGAGTATTGCGGAGGAAGG + anchor), 100 nM annealed; ATP concentration: 500 uM; one replicate
Procedure, shortened: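 Switching-strand clusters labelled with Cy3 on a modified Illumina MiSeq flow-cell were annealed to 100 nM quencher-labelled ATP aptamer, imaged in selection buffer, and re-imaged after 15 min with 500 uM ATP at 22 °C. This was done over five cycles with NaOH stripping and re-annealing in between. The fluorescence ratio is summed target-cycle over summed buffer-cycle Cy3 intensity per cluster, averaged per switch-domain sequence, excluding clusters outside 100-1000 RFU.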
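Further: ATP exposure 15 min at 22 °C before imaging.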

| Sequence | switch fluorescence ratio |
| --- | --- |
| CATCTAGACG | 0.988 |
| CATCTAGGGT | 1.02 |
| CATCTATACC | 1.04 |
| CATCTCCGAC | 1.83 |
| CATCTCGAGG | 0.996 |
| CATCTCGGCT | 0.971 |
| CATCTGGGAG | 1 |
| CATCTGTGGT | 0.997 |
| CATCTTGCTG | 1.02 |
| CATCTTTTTG | 1 |
| CATGAAACAG | 0.974 |
| CATGACCGCT | 0.985 |
| CATGACGGTA | 1.11 |
| CATGAGTGT | 0.972 |
| CATGATCGGA | 1.07 |
| CATGATTCAG | 0.98 |
| CATGCACTCG | 1.03 |
| CATGCGAAA | 1.13 |
| CATGCGGATA | 1.07 |
| CATGCGGGTA | 0.998 |
| CATGCTTATG | 0.984 |
| CATGGAACGC | 1.06 |
| CATGGAACTC | 0.984 |
| CATGGAAGTC | 0.994 |
| CATGGAATGA | 0.972 |

| Sequence | switch fluorescence ratio |
| --- | --- |
| CATGGATGTA | 1.01 |
| CATGGCAAAC | 3.02 |
| CATGGCCGGA | 0.977 |
| CATGGGAATC | 1.08 |
| CATGGGATAA | 1.01 |
| CATGGGGATG | 0.96 |
| CATGGGTTGT | 0.984 |
| CATGGTGAC | 1.02 |
| CATGGTGGGT | 0.962 |
| CATGGTTTGG | 1.02 |
| CATGTATC | 1.03 |
| CATGTCCCGT | 0.995 |
| CATGTGAAAC | 0.966 |
| CATGTGCGCC | 0.993 |
| CATGTGCGGA | 1.02 |
| CATGTGCTTT | 0.993 |
| CATGTGGATT | 1.02 |
| CATGTGGTTC | 0.97 |
| CATGTTCGTA | 1.01 |
| CATGTTGAAA | 1 |
| CATGTTTCCC | 0.948 |
| CATGTTTGGA | 0.996 |
| CATGTTTTAG | 0.98 |
| CATTAACTAT | 0.956 |
| CATTAACTGC | 0.939 |

| Sequence | switch fluorescence ratio |
| --- | --- |
| CATTAAGAAG | 1 |
| CATTACAGGA | 1.09 |
| CATTACGAAA | 1.07 |
| CATTATACTC | 1.08 |
| CATTATGAGG | 0.941 |
| CATTATTATA | 0.969 |
| CATTATTGAG | 1.02 |
| CATTATTGCG | 0.994 |
| CATTCAGCGG | 1.05 |
| CATTCATTGT | 0.982 |
| CATTCCAGCG | 1.16 |
| CATTCCGGAA | 1.16 |
| CATTCTATTT | 0.957 |
| CATTCTCACC | 1.06 |
| CATTCTCGGT | 1.01 |
| CATTCTTATT | 1.01 |
| CATTGAGGGG | 1.01 |
| CATTGAGTCT | 0.999 |
| CATTGCGTGC | 1.07 |
| CATTGCTAGA | 0.957 |
| CATTGGGATC | 1.03 |
| CATTGGGATG | 1 |
| CATTGGTTAA | 1.01 |
| CATTTAAGTT | 0.998 |
| CATTTAATCC | 0.975 |

| Sequence | switch fluorescence ratio |
| --- | --- |
| CATTTAGTTC | 1 |
| CATTTCGTAT | 1.01 |
| CATTTGCCAT | 0.975 |
| CATTTGCTTC | 1.08 |
| CATTTTACGT | 1.03 |
| CATTTTTATT | 1 |
| CCAAAACAGG | 1.08 |
| CCAAACAGAG | 1.03 |
| CCAAACCTAT | 1.04 |
| CCAAACCTG | 1.07 |
| CCAAATAAG | 1 |
| CCAAATGCG | 1.04 |
| CCAAATTCT | 1.02 |
| CCAAATTTCG | 1.04 |
| CCAACACCCG | 1.12 |
| CCAACCTTTC | 1.02 |
| CCAACGGGAT | 3.02 |
| CCAACTCAAG | 1.18 |
| CCAACTTGAG | 1.09 |
| CCAAGATGGA | 0.987 |
| CCAAGCCCAT | 1.17 |
| CCAAGCCTAG | 1.07 |
| CCAAGGATAT | 1.09 |
| CCAAGTGAGA | 1.03 |
| CCAAGTTGAT | 1.03 |

| Sequence | switch fluorescence ratio |
| --- | --- |
| CCAAGTTTTA | 1.03 |
| CCAATATCCA | 1.08 |
| CCAATCAAAT | 1.04 |
| CCAATGTGTA | 1.04 |
| CCAATTAAGG | 0.971 |
| CCACAAAAG | 1.03 |
| CCACACCTAT | 1.09 |
| CCACAGGGGT | 5.62 |
| CCACATACTA | 1.46 |
| CCACCAAAAG | 1.19 |
| CCACCGGACA | 1.4 |
| CCACCGTTTG | 1.28 |
| CCACGAAGGA | 1.02 |
| CCACGAATGG | 1.03 |
| CCACGACTTG | 0.981 |
| CCACGAGGCC | 0.882 |
| CCACGAGTA | 1.03 |
| CCACGATTTG | 0.986 |
| CCACGCCTTC | 1.79 |
| CCACGGAGAC | 2.71 |
| CCACGTGTTT | 1.09 |
| CCACTAACTT | 1.15 |
| CCACTACCCC | 1.15 |
| CCACTATAAT | 1.18 |
| CCACTCGTTA | 1.08 |

| Sequence | switch fluorescence ratio |
| --- | --- |
| CCACTGCTCG | 1.13 |
| CCACTGTACA | 1.56 |
| CCACTTACC | 1.22 |
| CCACTTATTT | 1.04 |
| CCACTTGTCT | 1.05 |
| CCAGAATGGT | 0.989 |
| CCAGATCGGA | 1 |
| CCAGCAGGCG | 1.25 |
| CCAGCATAAG | 1.37 |
| CCAGCGACAT | 1.27 |
| CCAGCGCG | 1.11 |
| CCAGCGTCAG | 0.982 |
| CCAGCGTGTC | 1.13 |
| CCAGCTTAG | 1.06 |
| CCAGCTTGTG | 1.01 |
| CCAGGATTTT | 0.993 |
| CCAGGGATTG | 1.09 |
| CCAGGGCTAA | 1.08 |
| CCAGGGTTCG | 1.12 |
| CCAGTAGTAA | 1.44 |
| CCAGTATATA | 1.05 |
| CCAGTCAGCC | 1.03 |
| CCAGTCCAGT | 1 |
| CCAGTCTTAG | 1 |
| CCAGTGCTTC | 1.07 |

| Sequence | switch fluorescence ratio |
| --- | --- |
| CCAGTGGTGA | 1.06 |
| CCAGTGTAAA | 1.01 |
| CCAGTGTCGA | 1.02 |
| CCAGTGTTAT | 1.06 |
| CCAGTTAGCG | 1.03 |
| CCAGTTAGGG | 1.07 |
| CCAGTTGGGC | 1.03 |
| CCATAATGGG | 1.01 |
| CCATAATTTC | 1.05 |
| CCATATCCGG | 1.04 |
| CCATATCGGT | 1.01 |
| CCATATGCGG | 1.05 |
| CCATCAGCGA | 2.34 |
| CCATCATGCA | 1.04 |
| CCATCCGTAT | 1.66 |
| CCATCCTCAG | 1.54 |
| CCATCGTATA | 1.28 |
| CCATCGTTGC | 1.21 |
| CCATCTGTG | 1.02 |
| CCATGAGGGA | 1.04 |
| CCATGGAGGG | 1.03 |
| CCATGGATTG | 1.04 |
| CCATGGCCTT | 0.978 |
| CCATGGTGGT | 1.01 |
| CCATGTGACG | 0.982 |

| Sequence | switch fluorescence ratio |
| --- | --- |
| CCATGTTTAG | 1.02 |
| CCATTGCGCG | 1.02 |
| CCATTGTCGG | 1.05 |
| CCATTTAGGG | 1.02 |
| CCATTTATTC | 0.978 |
| CCATTTGGAC | 1.01 |
| CCATTTGGTT | 0.964 |
| CCATTTTGGC | 1.02 |
| CCCAAATCAT | 1.02 |
| CCCAACGTCC | 1.11 |
| CCCACCTAG | 1.04 |
| CCCACTCTCC | 1.36 |
| CCCAGAGCTG | 1.3 |
| CCCAGCAAAT | 3.8 |
| CCCAGCACGG | 1.2 |
| CCCAGCGGGT | 1.01 |
| CCCAGCGTAT | 1.4 |
| CCCAGGAAAT | 1.02 |
| CCCAGGAGGG | 1.02 |
| CCCAGGCATA | 2.13 |
| CCCAGGGAGA | 1.23 |
| CCCAGGGAGC | 1.17 |
| CCCAGGGCGC | 1.03 |
| CCCAGGGGGT | 1.54 |
| CCCAGTGAGT | 1.31 |
